# From the supplement of paper PMC8728848
# Some of the results follow.
# B1: FliC (Pseudomonas aeruginosa), P72151 (protein)
# chain: MALTVNTNIASLNTQRNLNASSNDLNTSLQRLTTGYRINSAKDDAAGLQISNRLSNQISGLNVATRNANDGISLAQTAEGALQQSTNILQRIRDLALQSANGSNSDADRAALQKEVAAQQAELTRISDTTTFGGRKLLDGSFGTTSFQVGSNAYETIDISLQNASASAIGSYQVGSNGAGTVASVAGTATASGIASGTVNLVGGGQVKNIAIAAGDSAKAIAEKMDGAIPNLSARARTVFTADVSGVTGGSLNFDVTVGSNTVSLAGVTSTQDLADQLNSNSSKLGITASINDKGVLTITSATGENVKFGAQTGTATAGQVAVKVQGSDGKFEAAAKNVVAAGTAATTTIVTGYVQLNSPTAYSVSGTGTQASQVFGNASAAQKSSVASVDISTADGAQNAIAVVDNALAAIDAQRADLGAVQNRFKNTIDNLTNISENATNARSRIKDTDFAAETAALSKNQVLQQAGTAILAQANQLPQAVLSLLR
# Key:
# Assay in all cases: glycan array binding signal (z-score within array); higher = stronger binding
# Settings in all cases: glycan notation: IUPAC condensed, linker removed
# [1] = target: Man(a1-2)Man(a1-3)[Man(a1-2)Man(a1-6)]Man(a1-6)[Man(a1-2)Man(a1-2)Man(a1-3)]Man
# Summary of the method: (§1)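 Glycan array data were curated from 3228 arrays in the Consortium for Functional Glycomics database and kept only where the protein sequence was available. Glycan names were converted to IUPAC-condensed notation, and columns mapping to the same glycan were averaged. The binding signal is a within-array Z-score, averaged across arrays of the same protein sequence at different concentrations or buffers and across linkers. Negative Z-scores can be read as non-binding.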
# [2] = target: Man(a1-2)Man(a1-3)[Man(a1-2)Man(a1-6)]Man(a1-6)[Man(a1-2)Man(a1-2)Man(a1-3)]Man(b1-4)GlcNAc(b1-4)GlcNAc
# Summary of the method: as §1
# [3] = target: Man(a1-2)Man(a1-3)[Man(a1-6)]Man(a1-6)[Man(a1-2)Man(a1-3)]Man(b1-4)GlcNAc(b1-4)GlcNAc
# Summary of the method: as §1
# [4] = target: Man(a1-2)Man(a1-6)[Man(a1-3)]Man(a1-6)[Man(a1-2)Man(a1-2)Man(a1-3)]Man
# Summary of the method: as §1
# [5] = target: Man(a1-2)Man(a1-6)[Man(a1-3)]Man(a1-6)[Man(a1-2)Man(a1-2)Man(a1-3)]Man(b1-4)GlcNAc(b1-4)GlcNAc
# Summary of the method: as §1
# Man(a1-3)[Man(a1-6)]Man = target: Man(a1-3)[Man(a1-6)]Man
# Summary of the method: as §1
# [6] = target: Man(a1-3)[Man(a1-6)]Man(a1-6)[Man(a1-2)Man(a1-3)]Man(b1-4)GlcNAc(b1-4)GlcNAc
# Summary of the method: as §1
# [7] = target: Man(a1-3)[Man(a1-6)]Man(a1-6)[Man(a1-3)]Man
# Summary of the method: as §1
# [8] = target: Man(a1-3)[Man(a1-6)]Man(a1-6)[Man(a1-3)]Man(b1-4)GlcNAc(b1-4)GlcNAc
# Summary of the method: as §1
# [9] = target: Man(a1-3)[Man(a1-6)]Man(b1-4)GlcNAc(b1-4)GlcNAc
# Summary of the method: as §1
# [10] = target: Man(a1-3)[Man(a1-6)]Man(b1-4)GlcNAc(b1-4)[Fuc(a1-6)]GlcNAc
# Summary of the method: as §1
# Man(a1-6)Man = target: Man(a1-6)Man
# Summary of the method: as §1
# Man(b1-4)GlcNAc = target: Man(b1-4)GlcNAc
# Summary of the method: as §1
# MurNAc(b1-4)GlcNAc = target: MurNAc(b1-4)GlcNAc
# Summary of the method: as §1
# Neu5Ac(a2-3)Gal = target: Neu5Ac(a2-3)Gal
# Summary of the method: as §1
# [11] = target: Neu5Ac(a2-3)Gal(b1-3)GalNAc
# Summary of the method: as §1
# [12] = target: Neu5Ac(a2-3)Gal(b1-3)GalNAc(b1-3)Gal(a1-4)Gal(b1-4)Glc
# Summary of the method: as §1
# [13] = target: Neu5Ac(a2-3)Gal(b1-3)GalNAc(b1-4)[Neu5Ac(a2-3)]Gal(b1-4)Glc
# Summary of the method: as §1
# [14] = target: Neu5Ac(a2-3)Gal(b1-3)GalNAc(b1-4)[Neu5Ac(a2-8)Neu5Ac(a2-3)]Gal(b1-4)Glc
# Summary of the method: as §1
# [15] = target: Neu5Ac(a2-3)Gal(b1-3)GalNAc6S
# Summary of the method: as §1
# [16] = target: Neu5Ac(a2-3)Gal(b1-3)GlcNAc
# Summary of the method: as §1
# [17] = target: Neu5Ac(a2-3)Gal(b1-3)GlcNAc(b1-2)Man
# Summary of the method: as §1
# [18] = target: Neu5Ac(a2-3)Gal(b1-3)GlcNAc(b1-2)Man(a1-3)[GlcNAc(b1-4)][Neu5Ac(a2-3)Gal(b1-3)GlcNAc(b1-2)Man(a1-6)]Man(b1-4)GlcNAc(b1-4)GlcNAc
# Summary of the method: as §1
# [19] = target: Neu5Ac(a2-3)Gal(b1-3)GlcNAc(b1-2)Man(a1-3)[Neu5Ac(a2-3)Gal(b1-3)GlcNAc(b1-2)Man(a1-6)]Man(b1-4)GlcNAc(b1-4)GlcNAc
# Summary of the method: as §1
# [20] = target: Neu5Ac(a2-3)Gal(b1-3)GlcNAc(b1-3)Gal(b1-3)GlcNAc
# Summary of the method: as §1
# [21] = target: Neu5Ac(a2-3)Gal(b1-3)GlcNAc(b1-3)Gal(b1-4)GlcNAc
# Summary of the method: as §1
# [22] = target: Neu5Ac(a2-3)Gal(b1-3)GlcNAc(b1-3)GalNAc
# Summary of the method: as §1
# [23] = target: Neu5Ac(a2-3)Gal(b1-3)GlcNAc(b1-4)Gal(b1-4)Glc
# Summary of the method: as §1
# [24] = target: Neu5Ac(a2-3)Gal(b1-3)GlcNAc(b1-6)GalNAc
# Summary of the method: as §1
# [25] = target: Neu5Ac(a2-3)Gal(b1-3)GlcNAc6S
# Summary of the method: as §1
# [26] = target: Neu5Ac(a2-3)Gal(b1-3)[Fuc(a1-4)]GlcNAc
# Summary of the method: as §1
# [27] = target: Neu5Ac(a2-3)Gal(b1-3)[Fuc(a1-4)]GlcNAc(b1-3)Gal(b1-3)[Fuc(a1-4)]GlcNAc
# Summary of the method: as §1
# [28] = target: Neu5Ac(a2-3)Gal(b1-3)[Fuc(a1-4)]GlcNAc(b1-3)Gal(b1-4)[Fuc(a1-3)]GlcNAc
# Summary of the method: as §1
# [29] = target: Neu5Ac(a2-3)Gal(b1-3)[GlcNAc(b1-6)]GalNAc
# Summary of the method: as §1
# [30] = target: Neu5Ac(a2-3)Gal(b1-3)[Neu5Ac(a2-6)]GalNAc
# Summary of the method: as §1
# [31] = target: Neu5Ac(a2-3)Gal(b1-3)[Neu5Ac(a2-6)]GlcNAc(b1-3)[Fuc(a1-3)[Gal(b1-4)]GlcNAc(b1-6)]Gal(b1-4)Glc
# Summary of the method: as §1
# [32] = target: Neu5Ac(a2-3)Gal(b1-3)]Neu5Ac(a2-3)Gal(b1-4)]GlcNAc
# Summary of the method: as §1
binder,measurement,setting,value
B1,glycan array binding signal (z-score),[1],-0.179
same,glycan array binding signal (z-score),[2],-0.189
same,glycan array binding signal (z-score),[3],-0.253
same,glycan array binding signal (z-score),[4],0.038
same,glycan array binding signal (z-score),[5],-0.129
same,glycan array binding signal (z-score),Man(a1-3)[Man(a1-6)]Man,-0.107
same,glycan array binding signal (z-score),[6],-0.136
same,glycan array binding signal (z-score),[7],-0.152
same,glycan array binding signal (z-score),[8],-0.225
same,glycan array binding signal (z-score),[9],-0.137
same,glycan array binding signal (z-score),[10],-0.001
same,glycan array binding signal (z-score),Man(a1-6)Man,-0.226
same,glycan array binding signal (z-score),Man(b1-4)GlcNAc,-0.177
same,glycan array binding signal (z-score),MurNAc(b1-4)GlcNAc,-0.133
same,glycan array binding signal (z-score),Neu5Ac(a2-3)Gal,-0.141
same,glycan array binding signal (z-score),[11],-0.069
same,glycan array binding signal (z-score),[12],-0.128
same,glycan array binding signal (z-score),[13],-0.231
same,glycan array binding signal (z-score),[14],-0.183
same,glycan array binding signal (z-score),[15],1.19
same,glycan array binding signal (z-score),[16],-0.187
same,glycan array binding signal (z-score),[17],-0.176
same,glycan array binding signal (z-score),[18],0.037
same,glycan array binding signal (z-score),[19],0.057
same,glycan array binding signal (z-score),[20],0.56
same,glycan array binding signal (z-score),[21],-0.18
same,glycan array binding signal (z-score),[22],-0.174
same,glycan array binding signal (z-score),[23],-0.154
same,glycan array binding signal (z-score),[24],-0.161
same,glycan array binding signal (z-score),[25],-0.217
same,glycan array binding signal (z-score),[26],-0.192
same,glycan array binding signal (z-score),[27],-0.186
same,glycan array binding signal (z-score),[28],-0.173
same,glycan array binding signal (z-score),[29],-0.169
same,glycan array binding signal (z-score),[30],-0.034
same,glycan array binding signal (z-score),[31],-0.133
same,glycan array binding signal (z-score),[32],-0.125
